Among all 39,000 compounds or so, about 220 (0.56%) showed activity. This is one part of the list.
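Note: static incubation at 37 °C against the wild-type strain, values averaged over two biological replicates.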

This assay has as its system Escherichia coli K-12 BW25113. In words: relative growth (OD600 normalised to plate interquartile mean) (fraction); higher = less growth inhibition, active = 0.2 or less. The note with it: 50 µM; LB; incubation time: overnight (16-24 h).
`C[C@@H]1CCCCO[C@@H](CN(C)Cc2ccc(Cl)c(Cl)c2)[C@@H](C)CN([C@H](C)CO)C(=O)c2cc(NS(=O)(=O)c3ccccc3)ccc2O1`: the relative growth is inactive: 1.02. Next, `COCC(=O)N1C[C@@H](C)[C@H](OC)CN(C)C(=O)c2cc(NC(=O)Nc3cccc(F)c3)ccc2OC[C@@H]1C`: inactive: 0.999; `C[C@H](CO)N1C[C@H](C)[C@@H](CN(C)Cc2ccc(Cl)c(Cl)c2)OCc2ccccc2-c2c(n(C)c3ccccc23)C1=O`: inactive: 1.01. On to `C[C@@H]1CCCCO[C@H](CN(C)C(=O)CCCN(C)C)[C@@H](C)CN([C@H](C)CO)C(=O)c2cc(N(C)C)ccc2O1`, for which the relative growth was inactive: 0.971. The same measure for `COc1ccc(Cc2cnc(N)nc2N)cc1OC`: active: 0.0502. The same measure for `Cc1ccc(S(=O)(=O)N(C)C[C@H]2Oc3ccc(NS(=O)(=O)c4cccs4)cc3C(=O)N([C@H](C)CO)C[C@H]2C)cc1`: inactive: 1.03. Next, `C[C@@H]1CN([C@@H](C)CO)C(=O)c2cc(NC(=O)CCC(F)(F)F)ccc2O[C@@H](C)CCCCO[C@@H]1CN(C)C(=O)Nc1ccc2c(c1)OCO2`: inactive: 0.983. In the case of `O=C(C[C@@H]1CC[C@H]2[C@@H](COC[C@H](O)CN2C(=O)Nc2ccc(F)cc2)O1)NCCCN1CCOCC1`, the relative growth is inactive: 0.975. Next, `C[C@H]1CN([C@@H](C)CO)C(=O)Cc2cc(NS(=O)(=O)c3cn(C)cn3)ccc2O[C@H]1CN(C)S(=O)(=O)c1ccccc1`: inactive: 1.02. The same measure for `C[C@@H]1CCCCO[C@H](CN(C)C(=O)Nc2ccccc2)[C@@H](C)CN([C@H](C)CO)C(=O)c2cc(NC(=O)CCC(F)(F)F)ccc2O1`: inactive: 0.974. Next, `O=C(C[C@H]1CC[C@@H]2[C@H](COC[C@@H](O)CN2S(=O)(=O)c2ccccc2)O1)NCCN1CCCC1`: inactive: 0.999. For `C[C@H]1CN([C@@H](C)CO)C(=O)Cc2cc(NC(=O)CCC(F)(F)F)ccc2O[C@H]1CN(C)S(=O)(=O)c1cn(C)cn1`, the relative growth was inactive: 1. The same measure for `COc1ccc(NC(=O)N(C)C[C@@H]2Oc3ccc(NC(=O)CCCN(C)C)cc3C(=O)N([C@@H](C)CO)C[C@H]2C)cc1`: inactive: 0.986; for `CC=C(C)C(=O)O[C@H]1[C@H](OC(C)=O)[C@]2(CO)[C@H](O)C[C@]3(C)C(=CC[C@@H]4[C@@]5(C)CC[C@H](O[C@@H]6O[C@H](C(=O)O)[C@@H](O[C@@H]7O[C@H](CO)[C@@H](O)[C@H](O)[C@H]7O)[C@H](O)[C@H]6O[C@@H]6O[C@H](CO)[C@@H](O)[C@H](O)[C@H]6O)[C@](C)(CO)[C@@H]5CC[C@]43C)[C@@H]2CC1(C)C`: inactive: 0.783; for `CCc1nnc(NC(=O)c2nnc[nH]2)s1`: inactive: 1.01. Next, `C[C@@H]1CCCCO[C@@H](CN(C)Cc2ccc3c(c2)OCO3)[C@@H](C)CN([C@@H](C)CO)C(=O)c2cc(NS(=O)(=O)c3cccs3)ccc2O1`: inactive: 0.929; `O=C(C[C@@H]1C[C@H]2c3cc(NC(=O)Cc4ccncc4)ccc3O[C@H]2[C@H](CO)O1)NCCN1CCCCC1`: inactive: 1.02. The same measure for `O=C(NCCN1CCCC1)[C@@H]1[C@@H](CO)[C@@H]2Cn3c(cccc3=O)[C@H]1N2C(=O)NC1CCCC1`: inactive: 0.936.

As for `COc1cccc(NC(=O)N[C@H]2CC[C@H](CC(=O)N3CCN(C)CC3)O[C@@H]2CO)c1`, the relative growth is inactive: 0.994. Next, `CCN1[C@H](C(=O)NCCc2cn(C)cn2)[C@@H](CO)[C@@H]2Cn3c(ccc(-c4ccncc4)c3=O)[C@@H]21`: inactive: 0.97.

For `Cc1noc(C)c1NC(=O)N(C)C[C@H]1OCCCC[C@@H](C)Oc2ccc(NC(=O)Nc3ccc(F)cc3)cc2C(=O)N([C@H](C)CO)C[C@@H]1C`, the relative growth was inactive: 0.986. As to `C[C@@H]1CN([C@@H](C)CO)S(=O)(=O)c2ccc(Br)cc2O[C@H]1CN(C)CC1CCOCC1`, the relative growth was inactive: 1.

Regarding `CC(=O)N1C(=O)N(C(C)=O)[C@@H](O)[C@H]1O`, the relative growth is inactive: 1.01. Next, `O=C(CN1CCOCC1)N[C@@H]1CC[C@@H](CCn2cc(C3CC3)nn2)O[C@@H]1CO`: inactive: 0.979; `C[C@H]1CN([C@@H](C)CO)C(=O)c2cc(C#CCN(C)C)cnc2O[C@@H]1CN(C)C(=O)c1ccc2c(c1)OCO2`: inactive: 0.968. For the compound `CNC(=O)N1CCC(C(N)=O)CC1`, the relative growth was inactive: 1.01. Regarding `C[C@@H]1CN([C@@H](C)CO)C(=O)c2cccc(NC(=O)c3ccc(-c4nccs4)cc3)c2O[C@H]1CN(C)C(=O)Nc1ccc(C(F)(F)F)cc1`, the relative growth is inactive: 0.949.

Consider `CCCNC(=O)N(C)C[C@H]1Oc2cc(-c3ccccc3F)ccc2S(=O)(=O)N([C@H](C)CO)C[C@@H]1C`, for which the relative growth is inactive: 1.

On to `Cc1noc(C)c1S(=O)(=O)N(C)C[C@H]1Oc2c(NC(=O)C3CCOCC3)cccc2C(=O)N([C@@H](C)CO)C[C@H]1C`, for which the relative growth is inactive: 0.993.

For the compound `COc1ccc(S(=O)(=O)N(C)C[C@H]2OCc3cnnn3CCCC(=O)N([C@@H](C)CO)C[C@H]2C)cc1`, the relative growth is inactive: 0.996. The same measure for `CO[C@H]1CN(C)C(=O)c2ccc(NS(=O)(=O)CC(F)(F)F)cc2OC[C@H](C)N(C(=O)NC(C)C)C[C@H]1C`: inactive: 1.03; for `C[C@@H]1CN([C@@H](C)CO)C(=O)Cc2cc(NC(=O)CCCCCC(=O)Nc3ccccc3N)ccc2O[C@@H]1CN(C)C(=O)Nc1ccccc1`: inactive: 0.986. The same measure for `CC(C)NC(=O)N(C)C[C@H]1Oc2ccc(NC(=O)CCN3CCOCC3)cc2CC(=O)N([C@@H](C)CO)C[C@@H]1C`: inactive: 0.906; for `Cc1noc(C)c1NC(=O)N(C)C[C@H]1Oc2ncc(C#CCC(C)C)cc2C(=O)N([C@@H](C)CO)C[C@@H]1C`: inactive: 0.981; for `C[C@H](CO)N1C[C@H](C)[C@@H](CN(C)Cc2ccncc2)OCCCC[C@H](C)Oc2ccc(NS(=O)(=O)c3ccc(Cl)cc3)cc2C1=O`: inactive: 0.999. The same measure for `C[C@H]1CCCCO[C@@H](CN(C)Cc2ccccc2)[C@@H](C)CN([C@@H](C)CO)C(=O)c2cc(NC(=O)CCC(F)(F)F)ccc2O1`: inactive: 0.999. In the case of `Cc1ccc(S(=O)(=O)Nc2ccc3c(c2)C(=O)N([C@H](C)CO)C[C@@H](C)[C@@H](CN(C)S(=O)(=O)c2ccccc2)O3)cc1`, the relative growth was inactive: 1.03. On to `C=C/C=C/[C@H]1C(=C)CN([C@H](Cc2ccc(-n3cc(CCC(=O)NO)nn3)cc2)C(=O)OC)[C@@H]1[C@H](O)Cc1ccccc1`, for which the relative growth was inactive: 1. The same measure for `COc1oc(C(=O)NC2CCCCC2)c(-c2ccc(Cl)cc2)c1S(=O)(=O)c1ccc(Br)cc1`: inactive: 1.02; for `COC(=O)CCCCCCC(=O)Nc1ccc([C@H]2O[C@@H](CSc3nc4ccccc4s3)C[C@H](c3ccccc3)O2)cc1`: inactive: 1.01; for `COc1ccc(S(=O)(=O)N(C)C[C@H]2Oc3ccc(NS(=O)(=O)c4ccc(C)cc4)cc3CC(=O)N([C@@H](C)CO)C[C@H]2C)cc1`: inactive: 1. The same measure for `C[C@H](CO)N1C[C@H](C)[C@H](CN(C)CC2CC2)Oc2ccc(NS(=O)(=O)c3cccs3)cc2C1=O`: inactive: 0.975; for `C[C@H]1CCCCO[C@H](CN(C)Cc2ccc(Cl)c(Cl)c2)[C@@H](C)CN([C@@H](C)CO)C(=O)c2cc(NC(=O)c3ccccc3)ccc2O1`: inactive: 0.997; for `Cc1ccc(S(=O)(=O)N(C)C[C@@H]2OCCCC[C@H](C)Oc3ccc(NC(=O)Nc4cccc5ccccc45)cc3C(=O)N([C@H](C)CO)C[C@H]2C)cc1`: inactive: 1.01. For the compound `C[C@H]1CN([C@@H](C)CO)C(=O)c2cc(NC(=O)C3CCCCC3)ccc2O[C@@H]1CN(C)Cc1ccc(Cl)c(Cl)c1`, the relative growth was inactive: 0.993.

Regarding `Cc1ccc(S(=O)(=O)Nc2ccc3c(c2)C(=O)N([C@@H](C)CO)C[C@@H](C)[C@H](CN(C)C(=O)Nc2cccc4ccccc24)OCCCC[C@@H](C)O3)cc1`, the relative growth was inactive: 1.02. Next, `C[C@H](CO)N1C[C@H](C)[C@@H](CN(C)Cc2ccc3c(c2)OCO3)Oc2c(NS(=O)(=O)c3cn(C)cn3)cccc2C1=O`: inactive: 0.974. Next, `CN(C)CC(=O)N[C@@H]1CC[C@@H](CCNC(=O)C2CC2)O[C@H]1CO`: inactive: 1.03; `C[C@@H]1CN([C@H](C)CO)C(=O)CCCn2cc(nn2)CO[C@@H]1CN(C)S(C)(=O)=O`: inactive: 1.02. The same measure for `COc1ccc(S(=O)(=O)N(C)C[C@@H]2Oc3ccc(NC(=O)CCN4CCOCC4)cc3CC(=O)N([C@@H](C)CO)C[C@@H]2C)cc1`: inactive: 1.03.

For the compound `C[C@H](CO)N1C[C@H](C)[C@@H](CN(C)C(=O)Nc2ccc(F)cc2)Oc2c(NC(=O)Nc3ccc(C(F)(F)F)cc3)cccc2C1=O`, the relative growth is inactive: 0.958. The same measure for `C[C@@H]1CN([C@H](C)CO)C(=O)c2cc(NC(=O)C3CC3)ccc2O[C@H]1CN(C)S(=O)(=O)c1ccc(F)cc1`: inactive: 0.971. On to `CN(C)CCCN1c2ccccc2CCc2ccccc21.Cl`, for which the relative growth is inactive: 0.907. The same measure for `COCC#Cc1ccc2c(c1)O[C@H](CN(C)S(=O)(=O)c1ccc(C)cc1)[C@@H](C)CN([C@H](C)CO)S2(=O)=O`: inactive: 0.993; for `O=C(C[C@@H]1C=C[C@@H](NC(=O)Nc2ccc3c(c2)OCO3)[C@@H](CO)O1)NCCCN1CCOCC1`: inactive: 1.01. Next, `C[C@@H]1CCCCO[C@@H](CN(C)C(=O)c2ccccc2)[C@H](C)CN([C@@H](C)CO)C(=O)c2cc(NC(=O)Cc3ccccc3)ccc2O1`: inactive: 1.01; `COc1cccc(S(=O)(=O)N(C)C[C@H]2Oc3cc(C#CCC(C)C)ccc3S(=O)(=O)N([C@@H](C)CO)C[C@@H]2C)c1`: inactive: 0.983.

As to `CC(C)NC(=O)Nc1ccc2c(c1)C(=O)N([C@H](C)CO)C[C@H](C)[C@H](CN(C)C(=O)C1CCCCC1)OCCCC[C@H](C)O2`, the relative growth is inactive: 0.991.

The values above are taken from the supplement of paper PMC9446081.
